The subject of this assay is NCI-H322M lung. Description: NCI-60 cell line screen, 48 h.

Each structure is given as a SMILES string. Several values for one entry are separate records, joined by “and”; a condition that tells them apart may be missing. Equal entries are not always repeated.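 Exposure lasted 48 hours, with cells grown in 96-well plates and compounds tested at five concentrations. Here, GI50 denotes the concentration required for 50% inhibition of growth. TGI denotes the concentration required for complete inhibition of growth.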

On to `CN1CCN(Cc2ccc(NC(=O)c3cncc(C#Cc4cnc5ccc(NC6CCOCC6)nn45)c3)cc2C(F)(F)F)CC1`, for which the GI50 is 139 nM and 53.9 nM; the TGI is 604 nM and 299 nM.

For the origin of these results see PubChem BioAssay (NCI).
